Results as given in the supplement of paper PMC4967469.
The IC50 comes from the fitted curve, where viability falls to half of the control; a fit beyond the top or the lowest dose is shown as a bound at that dose. AUC sums up the same curve from the lowest dose to the 256-fold higher top dose; values near 1 show little effect. For part of these data: An inferred top dose was derived from the fitted curves, not read from the paper. For part of these data: Drugs with an entry number were screened twice under separate entries, and the two screens often disagree.

How the values were obtained:
Assay in all cases: Viability of human cancer cell lines after 72 h of drug (GDSC screen)
[1] = compound: CC(O)(CS(=O)(=O)c1ccc(F)cc1)C(=O)Nc1ccc(C#N)c(C(F)(F)F)c1 [Bicalutamide]; conditions: top dose inferred
Procedure: (§1)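 Human cancer cell lines in 384-well plates, medium with 10% serum, drug for 72 h over a 256-fold dose range (nine 2-fold or five 4-fold steps up to the top dose). Adherent lines were fixed and stained with the nucleic acid dye Syto60, suspension lines read with resazurin; signal relative to control wells, capped at 0 and 100%. One two-parameter sigmoid per drug and line, fitted in a mixed model over all curves with the slope shared within a line.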

[2] = compound: Cc1cn(-c2cc(NC(=O)c3ccc(C)c(Nc4nccc(-c5cccnc5)n4)c3)cc(C(F)(F)F)c2)cn1 [Nilotinib]; conditions: top dose 2 µM
Procedure: as §1

[3] = compound: O=S(=O)(c1ccccc1)N(CC(F)(F)F)c1ccc(C(O)(C(F)(F)F)C(F)(F)F)cc1 [T0901317]; conditions: top dose 10.24 µM; top dose inferred
Procedure: as §1

[4] = compound: Nc1ccn([C@@H]2O[C@H](CO)[C@@H](O)C2(F)F)c(=O)n1 [Gemcitabine]; conditions: top dose 1.024 µM
Procedure: as §1

[5] = compound: CC(C)c1ccccc1Cc1cc(C(=O)Nc2ccc(S(=O)(=O)c3ccccc3C(C)(C)C)cc2)c(O)c(O)c1O [TW-37]; conditions: top dose 5 µM
Procedure: as §1

[6] = compound: S=C(NCc1ccc2c(c1)OCO2)N1CCN(c2ncnc3c2oc2ccccc23)CC1 [MP470]; conditions: top dose 20 µM; top dose inferred
Procedure: as §1

[7] = compound: CCNC(=O)c1noc(-c2cc(C(C)C)c(O)cc2O)c1-c1ccc(CN2CCOCC2)cc1 [AUY922]; conditions: top dose 0.256 µM; top dose inferred
Procedure: as §1

[8] = compound: NC(=O)c1cccc(-c2cc(Nc3ccc(OC(F)(F)F)cc3)ncn2)c1 [GNF-2]; conditions: top dose 1.28 µM; top dose inferred
Procedure: as §1

[9] = compound: Cc1ccc(Nc2cc(-c3cccc(N4C(=O)c5ccccc5C4=O)c3)ncn2)cc1NS(C)(=O)=O [KIN001-270]; conditions: top dose 20 µM; top dose inferred
Procedure: as §1

[10] = compound: C/C(O)=C(\C#N)C(=O)Nc1cc(Br)ccc1Br [LFM-A13]; conditions: top dose 16 µM; top dose inferred
Procedure: as §1

[11] = top dose 1.024 µM, screen: GDSC drug entry 150
[12] = top dose 10 µM, screen: GDSC drug entry 1502

Cell Line	AUC [1, 11]	IC50 [1, 11] [nM]	AUC [1, 12]	IC50 [1, 12] [nM]	AUC [2]	IC50 [2] [nM]	AUC [3]	IC50 [3] [nM]	AUC [4]	IC50 [4] [nM]	AUC [5]	IC50 [5] [nM]	AUC [6]	IC50 [6] [nM]	AUC [7]	IC50 [7] [nM]	AUC [8]	IC50 [8] [nM]	AUC [9]	IC50 [9] [nM]	AUC [10]	IC50 [10] [nM]
NAMALWA (Burkitt lymphoma, suspension)	0.991	> 1020	0.99	> 10000	0.991	> 2000	0.954	> 10200	0.187	9.14	0.455	241	0.961	> 20000	0.619	32.2	0.991	> 1280	0.952	> 20000	0.989	> 16000
RPMI-8866 (chronic myeloid leukaemia, suspension)	0.987	> 1020	0.97	> 10000	0.856	1420	0.912	> 10200	0.396	34	0.402	172	0.906	> 20000	0.736	71.1	0.988	> 1280	0.932	> 20000	0.988	> 16000
SW954 (urogenital system, adherent)	0.984	> 1020	0.978	> 10000	0.973	> 2000	0.926	> 10200	0.225	9.96	0.565	472	0.948	> 20000	0.421	9.67	0.985	> 1280	0.951	> 20000	0.964	> 16000
A4-Fuk (B-cell lymphoma, suspension)	0.98	> 1020	0.975	> 10000	0.919	> 2000	0.968	> 10200	0.135	4.22	0.508	329	0.965	> 20000	0.497	15.7	0.985	> 1280	0.917	> 20000	0.891	> 16000
LP-1 (myeloma, suspension)	0.993	> 1020	0.993	> 10000	0.993	> 2000	0.933	> 10200	0.976	> 1020	0.731	1230	0.733	5000	0.957	> 256	0.993	> 1280	0.934	> 20000	0.992	> 16000
MRK-nu-1 (breast, suspension)	0.98	> 1020	0.988	> 10000	0.984	> 2000	0.99	> 10200	0.26	14.2	0.911	> 5000	0.851	13500	0.416	9.59	0.957	> 1280	0.965	> 20000	0.983	> 16000
JJN-3 (haematopoietic neoplasm, suspension)	0.992	> 1020	0.99	> 10000	0.938	> 2000	0.93	> 10200	0.825	472	0.609	585	0.874	13600	0.585	26.1	0.982	> 1280	0.984	> 20000	0.99	> 16000
NCI-H209 (small cell lung carcinoma, suspension)	0.975	> 1020	0.966	> 10000	0.926	> 2000	0.963	> 10200	0.455	47.8	0.561	464	0.883	> 20000	0.965	> 256	0.964	> 1280	0.976	> 20000	0.986	> 16000
GB-1 (glioma, adherent)	0.976	> 1020	0.935	> 10000	0.983	> 2000	0.983	> 10200	0.165	4.83	0.394	151	0.874	> 20000	0.433	10.1	0.943	> 1280	0.963	> 20000	0.966	> 16000
KNS-81-FD (glioma, adherent)	0.978	> 1020	0.967	> 10000	0.977	> 2000	0.976	> 10200	0.844	> 1020	0.544	428	0.926	> 20000	0.721	86.1	0.98	> 1280	0.955	> 20000	0.969	> 16000
NB(TU)1-10 (neuroblastoma, adherent)	0.993	> 1020	0.993	> 10000	0.988	> 2000	0.993	> 10200	0.68	188	0.697	1020	0.903	> 20000	0.611	30.8	0.993	> 1280	0.975	> 20000	0.993	> 16000
L-540 (Hodgkin lymphoma, suspension)	0.987	> 1020	0.97	> 10000	0.972	> 2000	0.957	> 10200	0.164	7.12	0.421	194	0.99	> 20000	0.866	187	0.99	> 1280	0.979	> 20000	0.984	> 16000
MFM-223 (breast, adherent)	0.987	> 1020	0.973	> 10000	0.988	> 2000	0.981	> 10200	0.988	> 1020	0.641	765	0.922	> 20000	0.967	> 256	0.988	> 1280	0.985	> 20000	0.988	> 16000
MOLT-4 (lymphoblastic leukaemia, suspension)	0.991	> 1020	0.983	> 10000	0.957	> 2000	0.981	> 10200	0.45	48	0.466	257	0.921	> 20000	0.642	36.4	0.992	> 1280	0.976	> 20000	0.979	> 16000
JM1 (B-cell lymphoma, suspension)	0.991	> 1020	0.985	> 10000	0.99	> 2000	0.377	309	0.04	< 4	0.469	260	0.513	1350	0.638	36.3	0.989	> 1280	0.939	> 20000	0.968	> 16000
LB2518-MEL (melanoma, adherent)	0.985	> 1020	0.986	> 10000	0.986	> 2000	0.978	> 10200	0.423	38.9	0.451	227	0.783	8900	0.686	54.6	0.985	> 1280	0.977	> 20000	0.977	> 16000
HCC2218 (breast, suspension)	0.979	> 1020	0.98	> 10000	0.983	> 2000	0.937	> 10200	0.93	> 1020	0.673	1080	0.463	963	0.713	76	0.965	> 1280	0.922	> 20000	0.976	> 16000
KM12 (large intestine, adherent)	0.978	> 1020	0.984	> 10000	0.985	> 2000	0.974	> 10200	0.551	89.3	0.731	1510	0.931	> 20000	0.562	24	0.985	> 1280	0.971	> 20000	0.972	> 16000
RPMI-6666 (Hodgkin lymphoma, suspension)	0.981	> 1020	0.979	> 10000	0.969	> 2000	0.896	> 10200	0.121	< 4	0.763	2160	0.982	> 20000	0.374	6.69	0.98	> 1280	0.899	> 20000	0.896	> 16000
U-87-MG (glioma, adherent)	0.984	> 1020	0.982	> 10000	0.984	> 2000	0.979	> 10200	0.708	277	0.398	156	0.981	> 20000	0.663	49.5	0.985	> 1280	0.966	> 20000	0.972	> 16000
PSN1 (pancreas, adherent)	0.991	> 1020	0.991	> 10000	0.985	> 2000	0.974	> 10200	0.022	< 4	0.45	234	0.951	> 20000	0.276	4.19	0.989	> 1280	0.96	> 20000	0.975	> 16000
NCI-H187 (small cell lung carcinoma, suspension)	0.977	> 1020	0.983	> 10000	0.988	> 2000	0.985	> 10200	0.937	> 1020	0.615	667	0.952	> 20000	0.968	> 256	0.967	> 1280	0.97	> 20000	0.988	> 16000
Becker (glioma, adherent)	0.982	> 1020	0.971	> 10000	0.975	> 2000	0.963	> 10200	0.637	161	0.498	309	0.919	> 20000	0.493	15.3	0.983	> 1280	0.97	> 20000	0.961	> 16000
BB65-RCC (kidney, adherent)	0.982	> 1020	0.972	> 10000	0.918	> 2000	0.98	> 10200	0.086	< 4	0.402	162	0.778	9400	0.489	14.9	0.975	> 1280	0.965	> 20000	0.924	> 16000
